Results from PubChem BioAssay AID1159614 (National Center for Advancing Translational Sciences (NCATS), 2016).
About 65 (0.1%) of roughly 45,000 compounds were called active. Calls follow the shape of the dose curve; as a rule, active = well fitted activation curve with a large enough effect; inconclusive = small, poorly fitted or top-dose-only effect; inactive = no such curve, though single readings can be large or run the other way. This is one part of the list.

Each compound was assayed against Galactocerebrosidase (Homo sapiens) (UniProt P54803) (assay: A Novel Cell-Based Assay to Identify Small Molecules for B -Galactocerebrosidase). Settings: 145M-Twi-hGALC-G270D cells, HMU-beta-Gal fluorescence, 48 h; series mostly up to 57.5 µM; activation: at the top concentration.
UniProt P54803, sequence (P54803 whole entry, looked up): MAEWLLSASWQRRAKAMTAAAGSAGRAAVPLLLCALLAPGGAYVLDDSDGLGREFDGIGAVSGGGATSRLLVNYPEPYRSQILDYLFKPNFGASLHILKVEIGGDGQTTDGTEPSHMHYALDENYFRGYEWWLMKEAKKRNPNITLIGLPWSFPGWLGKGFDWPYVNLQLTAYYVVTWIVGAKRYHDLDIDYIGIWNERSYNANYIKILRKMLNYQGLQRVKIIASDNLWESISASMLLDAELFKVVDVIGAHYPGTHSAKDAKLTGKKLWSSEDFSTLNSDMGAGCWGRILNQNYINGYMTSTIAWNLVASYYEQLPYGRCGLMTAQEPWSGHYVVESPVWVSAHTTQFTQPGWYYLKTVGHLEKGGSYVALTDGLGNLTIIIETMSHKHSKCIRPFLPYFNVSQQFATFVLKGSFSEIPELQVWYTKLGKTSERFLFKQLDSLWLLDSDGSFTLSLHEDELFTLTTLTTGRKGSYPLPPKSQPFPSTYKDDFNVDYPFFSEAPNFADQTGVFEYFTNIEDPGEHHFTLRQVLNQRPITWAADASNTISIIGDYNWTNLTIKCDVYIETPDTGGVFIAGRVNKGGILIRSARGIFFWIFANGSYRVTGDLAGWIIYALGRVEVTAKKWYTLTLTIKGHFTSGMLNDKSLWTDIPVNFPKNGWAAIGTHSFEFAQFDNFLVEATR
Outline: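 qHTS, 1536-well; 145M-Twi-hGALC-G270D cells (WT line also made) in DMEM/F12 + 10% FBS; compound incubation on live cells; HMU-β-gal 0.1 mM final, pH 5.2, NaTC; carbonate stop; fluorescence increase = enhanced residual activity.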
Also: 0% is about no effect; nearly all actives have a fitted effect of over 65% in size.

activation, inactive:
COc1ccc(C2CC(=O)Nc3c2c(C)nn3-c2nncc(-c3ccccc3)n2)c(OC)c1OC (configuration not stated) -7.96%, CCOC(=O)c1cnc2c(ccc3ccccc32)c1Nc1ccccc1O -22.5%, CCOC(=O)c1cccc(NC(=O)COc2ccc3c(C)cc(=O)oc3c2)c1 -9.3%, Cc1ccc(C(=O)NCCc2csc(-c3cccc(F)c3)n2)cc1C -14.9%, COc1ccc(-c2noc(CN(C(=O)c3ccc(C)cc3C)C(C)C)n2)cc1 -33.3%, CCOC(=O)c1ccccc1NC(=O)CSc1ccc(-c2sc(C)nc2C)nn1 -13.4%, CCN(C(=O)c1c(C)oc2ncnc(N3CCCCC3)c12)c1cc(C)ccc1C -7.14%, COc1ccccc1/C=C/c1nc(C#N)c(NCc2ccccc2)o1 -2.76%, COc1ccc(-c2cn3c(n2)sc2cc(C(=O)NCCc4ccccc4)ccc23)cc1 3.48%, O=C(OCc1cc(=O)n2nc(C3CC3)sc2n1)c1cccc(NC(=O)c2ccccc2Cl)c1 -15.9%, Cc1ccc(C)c(NC(=O)c2cnc(N3CCCC3)nc2C)c1 -12.4%, CCC(=O)N1CCCc2cc(S(=O)(=O)N3CCC(C(=O)NC4CCC(C)CC4)CC3)ccc21 (configuration not stated) -4.85%, Cc1cc(C)cc(NC(=O)NCc2noc3ccccc23)c1 -19.4%, CCOc1ccccc1C(=O)Nc1cccc(-c2nc3ccccc3s2)c1 -20.2%, COCCOC(=O)C1=C(C)NC(C)=C(C(=O)OC/C=C/c2ccccc2)C1c1cccc([N+](=O)[O-])c1 (configuration not stated) -12.7%, O=C(Cc1ccc(Cl)cc1)NC1CC(=O)N(c2ccc3c(c2)OCCO3)C1 (configuration not stated) -6.19%, Cc1cccc(CNC(=O)C2CCN(c3nn4cc(-c5ccc(F)cc5)nc4s3)CC2)c1 -5.55%, COc1ccc(-n2ncc(C(=O)NCc3cccs3)c2C2CCN(C(=O)OC(C)(C)C)CC2)cc1 -5.38%, CCc1ccccc1N(CC)C(=O)c1cc2c(s1)-c1ccccc1SC2 2.3%, CCc1nnc(NC(=O)c2nc(SCc3cccc(C)c3)ncc2Cl)s1 -6.02%, O=S(=O)(c1ccccc1)n1nc(-c2ccco2)nc1NCc1ccccc1 -5.49%, CCCCNc1ccc(C(=O)OCCOCCOCCOCCOCCOCCOCCOCCOCCOC)cc1 -21.8%, CCC(Sc1nnc(-c2ccc(F)cc2)c(-c2ccc(F)cc2)n1)C(=O)NC1CCCC1 (configuration not stated) -14.4%, CCOc1ccc(-c2cn3c(n2)sc2cc(C(=O)NC(C)C45CC6CC(CC(C6)C4)C5)ccc23)cc1 (configuration not stated) -5.13%, CCOc1ccc(C(c2c(O)cc(C)n(Cc3ccco3)c2=O)N2CCN(C)CC2)cc1 (configuration not stated) -24.4%, CC1CCN(C(=O)Cn2cc(SCC(=O)NCc3ccccc3)c3ccccc32)CC1 3.43%, O=C(CSc1nc2c([nH]c3ccccc32)c(=O)n1-c1ccccc1F)Nc1cccc(Cl)c1 -12.9%, CCC(=O)N1CCc2cc(S(=O)(=O)CCC(=O)Nc3cc(Cl)ccc3OC)ccc21 -14%, COc1cccc(N2CC(NC(=O)/C=C\c3ccccc3)CC2=O)c1 (configuration not stated) -3.67%, CC(Nc1oc(-c2ccc(COc3ccccc3)o2)nc1C#N)c1ccccc1 (configuration not stated) -21.3%, Cc1cccc(-n2ncc3c(NCCOCCO)ncnc32)c1 -7.25%, CCOc1ccc(CNC(=O)c2cc3c(=O)oc4ccc(C)cc4c3s2)cc1 -11.6%, Cc1ccccc1CNCCCSc1nnnn1C -7.57%, Cc1ccc(NC(=O)CSCc2cc(=O)c3ccccc3[nH]2)c(C)c1 10.6%, COc1ccc(C2C(C(=O)Nc3ccccc3)=C(C)Nc3nc(-c4ccc(Cl)cc4)nn32)cc1 (configuration not stated) -17.3%, Cc1cccc(Cn2c(CN3CCC(C(=O)NC(C)C)CC3)cc3ccccc32)c1 -19.4%, COc1ccc(CNC(=O)C2CCN(S(=O)(=O)c3cccc(-c4noc(C)n4)c3)CC2)cc1 -9.24%, Cc1cccc(Nc2nc(-c3ccccc3)nc3ccccc23)c1 -1.99%, O=C(COCc1cc(-c2ccc(F)cc2)on1)Nc1cccc(C(F)(F)F)c1 -13.8%, CCCOc1ccc(C2C(=O)N(C3CCCCC3)CC(=O)N2C2CCCCC2)cc1OC (configuration not stated) -10.8%, COc1ccc(Cn2c(CO)cnc2SCc2ccccc2)cc1 -10.1%, Cc1ccc(-n2c(=O)c3c(C)c(C(=O)N(C)C)sc3n(Cc3ccccc3C)c2=O)cc1C -12%, COc1ccc(-c2cn3c(n2)sc2cc(C(=O)NCCCN4CCN(C)CC4)ccc23)cc1 -2.94%, O=C(NCc1ccccc1Cl)C1=Cc2cc(Br)ccc2OC1 -18.5%, CCCCCn1c(CCCNC(=O)c2ccccc2OC)nc2ccccc21 -13.5%, COc1ccccc1-c1nn(CCC(=O)Nc2ccc(C)cc2)c2nc(C)cc(C)c12 -11.3%, CCN1CCN(CCCNC(=O)Cn2nc(C)n3c(cc4c(OC)cccc43)c2=O)CC1 -13.5%, Cc1ccccc1NC(=O)CSc1ccc(-c2ccccn2)nn1 -6.3%, COc1cc2c(cc1OC)CN(C(=O)[C@H](C)N[C@@H](CCc1ccccc1)C(=O)O)[C@H](C(=O)O)C2 -5.28%, CC1=C(C(N)=O)C(c2ccc(C)cc2)n2nc(SCc3ccccc3)nc2N1 (configuration not stated) 6.08%, CCOc1ccc(NC(=O)CC2C(=O)N(c3ccc(OC)cc3)C(=O)N2CCC2=CCCCC2)cc1 (configuration not stated) -14.9%, COc1cccc(N2CCN(C(=O)c3ccc4nc(N5CCC(C)CC5)sc4c3)CC2)c1 -8.24%, CCOC(=O)c1cnc2ccc(C(=O)OC)cc2c1Nc1ccc(OCc2ccccc2Cl)cc1 18%, CCN(CC)C(=O)Cn1ncc2c([nH]c3ccccc32)c1=O -9.6%, CC(=O)Nc1cccc(-c2nnc(SCC(=O)c3cc([N+](=O)[O-])ccc3Cl)o2)c1 -8.03%, Cc1oc2c(c1C(=O)NCc1ccccc1F)C1=NCCN1C=N2 -8.89%, O=C(NCC(c1ccc2c(c1)OCO2)N1CCN(c2ccccc2)CC1)C(=O)Nc1ccccc1F (configuration not stated) -23%, CCOC(=O)NNC(=O)C1CCC(C)CC1 (configuration not stated) -8.51%, CC(C)Oc1ccc(CNC(=O)c2cnc3sc(N4CCCC4)nn3c2=O)cc1 -2.07%, O=C(O)c1cc(-c2ccccc2)nn1Cc1ccccc1 -5.53%, Cc1ccc(-c2nnc3ccccc3c2C(=O)Nc2ccc(F)cc2)cc1 -4.22%, COc1ccc(C(C)=O)cc1CSc1nc(Nc2ccc(F)c(F)c2)c2ccccc2n1 -0.245%, Cc1ccc(N2CCN(c3nc4ccc(C(=O)c5ccccc5)cc4n4cnnc34)CC2)c(C)c1 -18.3%, COc1ccccc1Nc1nn2c(=O)c3ccc(C(=O)NCCc4ccccc4)cc3nc2s1 -24.3%, COc1ccc(C)cc1NC(=O)N(C(C)C)C1CCN(C(C)=O)CC1 -7.07%, CC(=O)Nc1ccc(NC(=O)c2ccc3c(c2)CCN3S(=O)(=O)c2ccc(C)cc2)cc1 -17.7%, Cc1cc(C)cc(NC(=O)C(=O)NCCc2sc(-c3cccc(F)c3)nc2C)c1 -13.1%, Cc1ccn2c(Nc3ccccc3)c(-c3c[nH]c4ccccc34)nc2c1 -13.1%, O=C(CSc1n[nH]c(-c2ccccc2)n1)N1CCN(c2ccc(F)cc2)CC1 -5.01%, CCOC(=O)c1[nH]c2ccccc2c1NC(=O)c1ccc(C)c(C)c1 -13.3%, Cc1noc(Cn2c(=O)c3ccccc3n(CC(=O)Nc3cc(Cl)ccc3C)c2=O)n1 -9.4%, O=C(CCn1cnc2onc(-c3ccc(F)cc3)c2c1=O)Nc1cccc(C(F)(F)F)c1 -10.1%, Cc1ccc(-c2nnc(Nc3ccc(OCC(N)=O)cc3)c3ccccc23)cc1S(=O)(=O)NCC1CCCO1 (configuration not stated) -12.5%, Cc1ccc(CSc2nc3ccccc3c3nc(CCn4c(C)nc5ccccc54)nn23)cc1 -7.58%, CCc1ccccc1NC(=O)CCn1cccn1 -35.1%, Cc1ccc(C)c(N2CCN(CCCNC(=O)c3cnn(-c4cccc(Cl)c4)c3C3CCN(C(=O)OC(C)(C)C)CC3)CC2)c1 -19.9%, Cc1cc(C)cc(NC(=O)C(C)N2Cc3ccccc3C2=O)c1 (configuration not stated) -0.252%, CCOc1ccc(NC(=O)c2ccc3c(=O)n4c(nc3c2)CCCCC4)cc1 -3.27%, CCOc1ccccc1NC(=O)CN1C(=O)CC(c2ccc(C)c(C)c2)=Nc2ccccc21 -14.1%, Cc1ccc(-n2c(=O)c3c(cnn3C)n(CC(=O)Nc3cccc(Cl)c3)c2=O)cc1 1.36%, O=C(O)C(S)C(S)C(=O)O (configuration not stated) -7.6%, Cc1ccc(CNC(=O)C2CCN(C(=O)N3CC(C)Oc4ccc(Cl)cc43)CC2)cc1 (configuration not stated) -14%, CCC(C(=O)NCCc1ccc(OC)c(OC)c1OC)n1nc(C)c2sc3ccccc3c2c1=O (configuration not stated) 0.879%, CC1CCN(S(=O)(=O)c2ccc3c(c2)N(C)C(=O)CC(=O)N3C)CC1 -13.5%, CCc1ccc(CNC(=O)CN2C(=O)C3CCCCN3c3ccc(C(=O)N4CCCC4)cc32)cc1 (configuration not stated) -1.54%, CC(C)Oc1ccc(CNC(=O)C(C)n2ccc3cc(S(=O)(=O)N4CCCCCC4)ccc32)cc1 (configuration not stated) -17.1%, COc1cccc(NC(=O)C(C)n2c(=O)cc(C(F)(F)F)c3c(C)nn(C)c32)c1 (configuration not stated) -23.2%, Cc1ccc(-c2nnc(SCc3ccccc3)o2)cc1 -24.2%, CCCNC(=O)CN1C(=O)COc2ccc(S(=O)(=O)N3CCCCCC3)cc21 -12.7%, CCN(CC)C(=O)Cn1c(SCC(=O)Nc2ccc(F)cc2)nc2ccccc21 -7.68%, CCc1ccccc1NC(=O)Cn1c(=O)n(C(C)C)c(=O)c2oc3ccccc3c21 -8.7%, COc1ccccc1NC(=O)c1cc2c(-c3ccccc3)nn(-c3ccccc3)c2s1 -4.18%, CCOc1ccccc1NC(=O)Cn1c(=O)nc(-c2ccccc2F)c2cc(Cl)ccc21 -5.03%, COc1ccc(OCc2nc3ccccc3n2Cc2ccc(C(C)(C)C)cc2)cc1 -11.3%, COc1cccc(NC(=O)C2CCCN(c3ncnc4onc(C)c34)C2)c1 (configuration not stated) -1.37%, O=C(Cc1ccc(-c2ccccc2)cc1)NCCS(=O)(=O)N1CCN(c2ccccc2F)CC1 -1.56%, CCC1=C(C)CN(C(=O)NCCc2ccc(S(=O)(=O)NC(=O)NC3CCC(C)CC3)cc2)C1=O (configuration not stated) -11.8%
